Reference: the BET-seq Pho4 binding data (Le et al. 2018)
This is one part of the list. The energies were worked out here from pooled read counts, against the library average; single values are noisy.

biological target: T1, Pho4 (S. cerevisiae) (UniProt P07270); assay: relative binding free energy (BET-seq); higher = weaker binding; conditions: reference: library average
T1 sequence: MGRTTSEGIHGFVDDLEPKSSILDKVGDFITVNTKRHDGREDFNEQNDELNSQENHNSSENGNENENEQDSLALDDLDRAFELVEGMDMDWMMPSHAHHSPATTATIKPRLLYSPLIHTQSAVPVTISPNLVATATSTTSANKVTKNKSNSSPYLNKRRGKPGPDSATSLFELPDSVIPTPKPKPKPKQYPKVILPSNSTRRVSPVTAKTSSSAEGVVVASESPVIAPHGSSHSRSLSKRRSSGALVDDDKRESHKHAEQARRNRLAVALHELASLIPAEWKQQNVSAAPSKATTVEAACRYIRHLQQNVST

Sequence	relative binding free energy
TGGGTCACGTGGGACG	-0.01 kcal/mol
TGTTGCACGTGATTAA	0.13 kcal/mol
TTCCGCACGTGTGGTT	0.1 kcal/mol
GGTGACACGTGTTAGT	0.1 kcal/mol
AGAAGCACGTGAGATG	0.28 kcal/mol
GCGCTCACGTGGGTGG	0.12 kcal/mol
TGTAGCACGTGGTAGC	-0.18 kcal/mol
TTGTTCACGTGGAGAT	0.22 kcal/mol
TGTCGCACGTGTTAGG	-0.01 kcal/mol
TATTTCACGTGCAGTT	0.31 kcal/mol
ATTTGCACGTGCGGAG	0.01 kcal/mol
GTTAACACGTGGTAGC	0.14 kcal/mol
AGGCACACGTGGGGCG	-0.12 kcal/mol
GAAGGCACGTGGTGGA	-0.06 kcal/mol
GTAATCACGTGTGGCG	0.17 kcal/mol
TGTGACACGTGTGAGC	0.05 kcal/mol
GGGTGCACGTGGTCAA	-0.17 kcal/mol
TAATACACGTGTGGCT	0.17 kcal/mol
TAAGGCACGTGAGAGT	0.05 kcal/mol
GGGCCCACGTGTAGGG	0.07 kcal/mol
AGTGTCACGTGTCGGG	0.13 kcal/mol
AGTTGCACGTGGCGAT	-0.11 kcal/mol
TTGTGCACGTGGTCTG	-0.03 kcal/mol

Sequence	relative binding free energy
GGTGGCACGTGCTGAA	-0.09 kcal/mol
GTGGACACGTGGGGGG	-0.09 kcal/mol
TAATGCACGTGATATT	0.02 kcal/mol
GCCGTCACGTGTTGGG	0.17 kcal/mol
TCATTCACGTGGGGGT	0.11 kcal/mol
TGAGACACGTGATGGT	0 kcal/mol
TGCTTCACGTGTTATC	0.22 kcal/mol
AAGTACACGTGGTATT	-0.14 kcal/mol
GAAGGCACGTGAGGGC	0.14 kcal/mol
TGTTCCACGTGATGAT	0.24 kcal/mol
TTGGACACGTGCATGT	-0.03 kcal/mol
TAGTTCACGTGCGTTC	0.21 kcal/mol
TTACGCACGTGTTTTT	-0.05 kcal/mol
GGGGGCACGTGGCTAA	-0.28 kcal/mol
TGTAGCACGTGCGTGC	-0.29 kcal/mol
AAATTCACGTGTGGGC	0.24 kcal/mol
ATTGACACGTGGTTGG	0 kcal/mol
CGCGGCACGTGGAATG	0.05 kcal/mol
CAACTCACGTGGGTGG	0.13 kcal/mol
TTGCGCACGTGTGGGA	-0.18 kcal/mol
CTTTTCACGTGAAGGG	0.35 kcal/mol
TTTTCCACGTGGGATT	0.05 kcal/mol
ATGCTCACGTGGTTGT	0.21 kcal/mol

Sequence	relative binding free energy
TATTTCACGTGGCTGC	0.24 kcal/mol
GTAGGCACGTGTCATT	-0.11 kcal/mol
ATAATCACGTGGTATT	0.03 kcal/mol
ACGTACACGTGATGTG	0.22 kcal/mol
TAGGGCACGTGAGTAG	0.09 kcal/mol
GTTTGCACGTGGTTTG	0.09 kcal/mol
AGGCTCACGTGTTCGG	0.22 kcal/mol
TTTTACACGTGGGATG	0.15 kcal/mol
GATTTCACGTGCAGGG	0.44 kcal/mol
GACGTCACGTGTGGTA	0.11 kcal/mol
TAAGACACGTGCGTGG	0.05 kcal/mol
AAGGGCACGTGGGACG	-0.22 kcal/mol
AGGTGCACGTGAATGT	0.2 kcal/mol
AGGCTCACGTGAGTGG	0.3 kcal/mol
TTTCACACGTGAATGG	0.33 kcal/mol
GGTATCACGTGGGTTT	0.2 kcal/mol
AGTGTCACGTGTATAA	0.11 kcal/mol
CGGAACACGTGGGCGT	-0.09 kcal/mol
GTGATCACGTGTGTGG	0.15 kcal/mol
GTGCGCACGTGGTATT	-0.21 kcal/mol
CATGGCACGTGGCGGG	-0.18 kcal/mol
AGGGTCACGTGATGGG	0.23 kcal/mol
GTCGGCACGTGGGGTC	-0.16 kcal/mol

Sequence	relative binding free energy
CTGGGCACGTGGATTA	0.03 kcal/mol
TAGGTCACGTGGCAGT	0.06 kcal/mol
ATTTACACGTGTCAGG	0.01 kcal/mol
GGGGTCACGTGCTCTG	0.2 kcal/mol
GTGTTCACGTGCTGGG	0.32 kcal/mol
ACTTTCACGTGTCAGG	0.31 kcal/mol
GTTCGCACGTGATGTA	0.17 kcal/mol
GCTTACACGTGGGGGG	0.09 kcal/mol
CGGCGCACGTGAGCGG	0.07 kcal/mol
TGGGTCACGTGATGCC	0.28 kcal/mol
GTGCTCACGTGCAGGG	0.1 kcal/mol
AGTCTCACGTGTAGGT	0.06 kcal/mol
TTTGCCACGTGGTCGA	-0.13 kcal/mol
CTTGTCACGTGGAGCT	0.11 kcal/mol
TAGAACACGTGGGATT	0 kcal/mol
AGGGGCACGTGTCGGC	-0.22 kcal/mol
AGGGTCACGTGGCTCG	0.06 kcal/mol
TTTGACACGTGAGCGT	0.11 kcal/mol
GTAGTCACGTGGTAAT	0.23 kcal/mol
CTTGGCACGTGGGGCC	-0.19 kcal/mol
CGTGGCACGTGGGTAG	-0.29 kcal/mol
AGCGTCACGTGGTATA	0.1 kcal/mol
AGTGGCACGTGTGGGC	0.03 kcal/mol

Sequence	relative binding free energy
AGTGGCACGTGGAGGT	-0.04 kcal/mol
CGTCACACGTGGGTGT	-0.13 kcal/mol
AAAGGCACGTGTGCTT	0 kcal/mol
GTTAACACGTGCTGTG	-0.08 kcal/mol
GTATTCACGTGACTGT	0.21 kcal/mol
TACGGCACGTGGGTAT	-0.24 kcal/mol
TAGGACACGTGGGGTC	-0.09 kcal/mol
TAAGACACGTGCGGTT	0.03 kcal/mol
CTGTCCACGTGTTTGG	-0.02 kcal/mol
ATGGTCACGTGTGAGG	0.11 kcal/mol
TGGTCCACGTGGACGG	0.06 kcal/mol
AGCGTCACGTGGTTTA	-0.05 kcal/mol
AGTATCACGTGTGGGT	0.14 kcal/mol
TGTGGCACGTGATAGT	0.11 kcal/mol
GTGGGCACGTGATGAT	0.12 kcal/mol
GGTATCACGTGGTCGG	0.13 kcal/mol
AGTGTCACGTGTACGG	0 kcal/mol
ATTGGCACGTGGTTGG	-0.12 kcal/mol
TGGTTCACGTGCGGTT	0.3 kcal/mol
TGAGACACGTGTTAGA	0 kcal/mol
GGGGGCACGTGGGGAT	-0.16 kcal/mol
GAGTGCACGTGATTGT	0.12 kcal/mol
TGATACACGTGTTTAT	-0.02 kcal/mol
